Data taken from publication PMC3210601, “New Tetromycin Derivatives with Anti-Trypanosomal and Protease Inhibitory Activities” (Marine Drugs, 2011).

assay: Cytotoxicity Alamar Blue assay, J774.1 macrophages; conditions: mouse

Going from `COc1cc(C)c(C(=O)NC2C(C)OC(OC3CC(C)=CC4C3CC(C)C3/C(C)=C\CC/C(C)=C/C5(C)C=C(C(=O)O)C(C)CC56OC(=O)C(=C6O)C(=O)C43C)C(O)C2(C)O)c(O)c1` (stereo not shown) [Compound 1, Tetromycin 1] to `COc1cc(C)c(C(=O)OC2C(C)OC(OC3CC(C)=CC4C3CC(C)C3/C(C)=C\CC/C(C)=C/C5(C)C=C(C(=O)O)C(C)CC56OC(=O)C(=C6O)C(=O)C43C)C(O)C2O)c(OC)c1` (stereo not shown) [Compound 2, Tetromycin 2], the IC50 at 24 h falls from greater than 100 µM to 50.2 µM.

`COc1cc(O)cc(C)c1C(=O)OC1C(C)OC(OC2CC=C(C)C3C2CC(C)C2/C(C)=C\CC/C(C)=C/C4C=C(C(=O)O)C(C)CC45OC(=O)C(=C5O)C(=O)C32C)C(O)C1O` (stereo not shown) [Compound 3, Tetromycin 3] and `COc1cc(O)cc(C)c1C(=O)OC1C(C)OC(OC2CC(C)=CC3C2CC(C)C2/C(C)=C\CC/C(C)=C/C4(C)C=C(C(=O)O)C(C)CC45OC(=O)C(=C5O)C(=O)C32C)C(O)C1O` (stereo not shown) [Compound 4, Tetromycin 4] are within 1.5-fold of each other in IC50 at 24 h: 25.7 µM for the first, 27.5 µM for the second.
